# Several values for one entry are separate records, joined by “and”; a condition that tells them apart may be missing. Identical values can stand only once. About 4,000 (4.3%) of roughly 94,000 compounds were called active. The inconclusive results got no clear call from the source; some entries with a clear call stand among them for comparison. The call rests on the fitted dose curve; in most records, active means well fitted inhibition curve with a large enough effect; inconclusive means small, poorly fitted or top-dose-only effect; inactive means no such curve, though single readings can be large or run the other way. Potencies beside an inconclusive call are fits to weak or partial responses and may not hold up.
# Experiment: Cytotoxic Profiling in NIH 3T3 Cell Line of Diverse Libraries Using Quantitative High-Throughput Screening; further: nearly all actives have a fitted effect of over 55% in size
# Conditions: NIH 3T3 viability, CellTiter-Glo ATP luminescence, 48-72 h; activity change, negative = cytotoxicity: at 96.7 µM (top of the series) unless noted; series mostly up to 96.7 µM
# Method in brief: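 Cytotoxicity was measured by CellTiter-Glo ATP luminescence after 48 or 72 h compound exposure at 37 °C. Mouse NIH 3T3 fibroblasts were seeded at 400 cells/well and dosed by 23 nL pin transfer.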
# On the % scale 0 is the no-effect control and ±100 the full control effect; potency means the concentration at half of the fitted maximal effect; tags describe the fitted curve by direction and shape.
SMILES,Potency,"activity change, negative = cytotoxicity",outcome
COc1ccccc1-n1cc(C(=O)N2CCc3c(Cl)cccc3C2)cn1,"inconclusive: 50.1 µM [inhibitor, partial curve]",,
COc1ccc(NC(=O)COc2cccc(-c3nnc4n3CCCC4)c2)cc1OC,,inactive: -18%,
O=C(c1ccccc1F)N1CCN(c2cc(-c3ccccc3)[nH]n2)CC1,"inconclusive: 39.8 µM [inhibitor, partial curve]",,
CS(=O)(=O)N1CCC(C2CCN(C(=O)NC3CCCC3)C2)CC1 (centres undefined),,,inactive
Cc1ccccc1CC(=O)N1CCC[C@H]1c1nc(-c2ccccc2Cl)no1,"inconclusive: 50.1 µM [inhibitor, partial curve, poor fit]",,
O=C(NCC1CN(Cc2ccncc2Cl)CC12CN(c1ccccc1)C2)c1ccccc1 (centres undefined),"inconclusive: 50.1 µM [inhibitor, single point]",,
CN1CCCCCC(O)c2cc(C(=O)N3CCCCCC3)ccc21 (centres undefined),"inconclusive: 39.8 µM [inhibitor, partial curve, poor fit]",,
O=C(CCc1cccnc1)N1CCC(c2[nH]ncc2-c2cccc(F)c2)CC1,"inconclusive: 56.2 µM [inhibitor, partial curve, poor fit]",,
CN1C(=O)c2cccn2CC1C(=O)N1CC=C(c2ccccc2)CC1 (centres undefined),"inconclusive: 50.1 µM [inhibitor, partial curve, poor fit]",,
O=C(NCC1CC1)c1nc2c(o1)CCN(Cc1ccc(F)cc1F)CC2,"inconclusive: 35.5 µM [inhibitor, partial curve, poor fit]",,
O=C(NCCc1ccccc1F)c1ccc2nnc(CC3CC3)n2c1,"inconclusive: 89.1 µM [inhibitor, partial curve, poor fit]",,
COc1ccc(C2Cn3nnc(C(=O)N4CCN(C(=O)c5cc(F)ccc5Cl)CC4)c3CO2)cc1 (centres undefined),"inconclusive: 39.8 µM [inhibitor, partial curve]",,
COc1ccc(C(=O)N[C@@H]2CCC[C@@H]2C(=O)NCCc2c[nH]c3ccc(OC)cc23)cc1,,inactive: -23.3%,
O=C(CCc1nc2ccccc2c(=O)[nH]1)NC1CCCc2c1[nH]c1c(Cl)cccc21 (centres undefined),"inconclusive: 39.8 µM [inhibitor, partial curve, poor fit]",,
CC(C)CCN1CCCC2(CNc3ccccc3[S+](=O)([O-])N2)C1 (centres undefined),,inactive: -19.1% [at 138 µM],
COc1ccccc1CC(=O)N1CCCc2ncc(C(=O)N3CCN(CCO)CC3)cc21,"inconclusive: 56.2 µM [inhibitor, partial curve, poor fit]",,
O=C(Nc1ccccc1F)NC1CCc2nn(CC3CC3)c(=O)n2CC1 (centres undefined),,inactive: -22.5%,
Cn1cnc2cc(-c3ccc(F)cc3)cc(C(=O)NCCc3ccccn3)c21,"inconclusive: 112 µM [inhibitor, single point]",,
O=C(COc1cccc(-c2nnc3n2CCCC3)c1)N1CCN(c2ccccc2F)CC1,,inactive: -19.7%,
Cn1ccc2ccc(-c3nc(C4CCOC4)no3)cc21 (centres undefined),"inconclusive: 79.4 µM [inhibitor, single point]",,

SMILES,Potency,"activity change, negative = cytotoxicity",outcome
COCC1CN(C(C)=O)CC12CCN(S(=O)(=O)c1cn(C)cn1)CC2 (centres undefined),,inactive: -23.2%,
Cc1ccc([S+](=O)([O-])N2CC(=O)N(CC3CC3)CC(C)(C)C2)cc1,"inconclusive: 44.7 µM [inhibitor, partial curve, poor fit]",,
Cc1cccc(OCCc2noc(C3CCCCN3C(=O)NC(C)C)n2)c1 (centres undefined),"inconclusive: 44.7 µM [inhibitor, partial curve, poor fit]",,
Cc1cc(C)n(C2CCN(Cc3cn(-c4ccccc4)nn3)C2)n1 (centres undefined),,inactive: -19.9%,
O=[S+]([O-])(NC1CCCN(c2ccc3nnc(-c4ccccc4)n3n2)C1)c1cccc(C(F)(F)F)c1 (centres undefined),"inconclusive: 2.51 µM [inhibitor, full curve, poor fit]",,
CCCC(O)CN1CCC(=O)N(CC(C)(C)C)Cc2cc3c(cc21)OCO3 (centres undefined),"inconclusive: 39.8 µM [inhibitor, partial curve, poor fit]",,
N#Cc1ccc(CN2CC(Oc3ccc4c(c3)OCO4)C2)cc1,"inconclusive: 56.2 µM [inhibitor, partial curve, poor fit]",,
CCNC(=O)N1C[C@@H](F)[C@@H](OCc2nc3ccc(C)cc3[nH]2)C1,,inactive: 2.85% [at 138 µM],
C[S+](=O)([O-])Nc1cccc(-c2cc3c(ccn3Cc3cccnc3)c(C3=CCOCC3)n2)c1,"inconclusive: 10 µM [inhibitor, full curve, poor fit]",,
Cn1ncc2c(C(=O)NCCCNC(=O)OC(C)(C)C)cc(-c3ccccc3F)nc21,"inconclusive: 31.6 µM [inhibitor, partial curve, poor fit]",,
COCCN1CCCN(C(=O)c2cc(C)ccc2C)c2ccccc21,"inconclusive: 50.1 µM [inhibitor, single point]",,
O=C(CCNC(=O)c1cnccn1)NC1CCCc2c1[nH]c1c(Cl)cccc21 (centres undefined),"inconclusive: 50.1 µM [inhibitor, single point]",,
O=c1[nH]c(C2CCCN(Cc3ccc(-c4cccs4)cc3)C2)nc2ccc(F)cc12 (centres undefined),"inconclusive: 10 µM [inhibitor, full curve, poor fit] and inconclusive: 11.2 µM [inhibitor, full curve, poor fit]",,
O=C(c1ccc(CSc2ncccn2)o1)N1CCC2(CCOCC2)CC1,"inconclusive: 2.82 µM [inhibitor, full curve, poor fit]",,
CCc1nn(-c2ccc(OC)cc2)c(Oc2ccccc2F)c1CCC(=O)NCC1CC1,"inconclusive: 50.1 µM [inhibitor, partial curve, poor fit]",,
CCC1Oc2ccc(NC(=O)COC)cc2CN(Cc2ccc(F)cc2)C1=O (centres undefined),,inactive: -22.3%,
CCCCCC(=O)N1CCC(=O)N(C)C[C@H]2COc3ccc(C)cc3[C@H]21,"inconclusive: 79.4 µM [inhibitor, single point]",,
COc1cccc(NC(=O)CCC2CCN(S(=O)(=O)c3ccccc3)CC2)c1,"inconclusive: 50.1 µM [inhibitor, partial curve, poor fit]",,
N#Cc1cccnc1N1CCC(CO)(Cc2ccccc2C(F)(F)F)CC1,"inconclusive: 70.8 µM [inhibitor, partial curve]",,
